Experimental data as given in publication PMC6919601, “Identification of Plasmodium dipeptidyl aminopeptidase allosteric inhibitors by high throughput screening” (PLoS ONE, 2019).
Several values for one entry are separate records, joined by “and”; a condition that tells them apart may be missing. Identical values can stand only once. Screen size: about 110,000 compounds; about 230 (0.21%) showed an effect of 50% or more. Some of the results follow.

Target: DPAP1 (Plasmodium falciparum, UniProt Q8IIJ9)
Sequence (Q8IIJ9 whole entry, looked up): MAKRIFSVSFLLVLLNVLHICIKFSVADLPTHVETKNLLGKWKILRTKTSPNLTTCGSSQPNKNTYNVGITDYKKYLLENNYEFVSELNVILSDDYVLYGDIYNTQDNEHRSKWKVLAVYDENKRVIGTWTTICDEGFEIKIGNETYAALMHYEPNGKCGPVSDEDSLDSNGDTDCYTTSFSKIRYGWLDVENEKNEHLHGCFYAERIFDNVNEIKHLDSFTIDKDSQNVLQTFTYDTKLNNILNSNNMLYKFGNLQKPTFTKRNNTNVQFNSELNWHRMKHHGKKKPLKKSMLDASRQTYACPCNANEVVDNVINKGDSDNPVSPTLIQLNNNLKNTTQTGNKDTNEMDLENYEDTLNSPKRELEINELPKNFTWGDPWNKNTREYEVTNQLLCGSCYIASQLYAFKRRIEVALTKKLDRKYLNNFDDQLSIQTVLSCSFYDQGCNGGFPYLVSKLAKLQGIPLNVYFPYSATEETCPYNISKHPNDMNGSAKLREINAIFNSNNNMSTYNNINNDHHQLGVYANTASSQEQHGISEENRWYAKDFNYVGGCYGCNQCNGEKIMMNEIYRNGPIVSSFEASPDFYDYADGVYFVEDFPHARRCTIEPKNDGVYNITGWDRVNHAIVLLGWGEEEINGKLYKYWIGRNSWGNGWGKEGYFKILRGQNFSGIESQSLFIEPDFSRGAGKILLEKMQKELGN
Assay: primary screen, percent inhibition; read by cleavage of a fluorogenic dipeptide substrate; higher = more effect of the substance
Parameters: species or system P. falciparum D10 trophozoite lysates; single well
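Note: 30 min substrate incubation versus DMSO and 10 µM JCP410 controls.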

Structure (SMILES)	% Inhibition @ 10 uM
N#CC1=C(N)N=C(S)[C@@H](C(N)=O)[C@@H]1c1ccc(Br)cc1	9.92%
CCC(C)C(NC(=O)OCc1ccccc1)C(=O)N[C@@H](CCc1ccccc1)C(=O)C[N+](=O)[O-] (some centres unmarked)	2.22%
COc1ccc(C2c3c(-c4cc(C)ccc4O)n[nH]c3C(=O)N2Cc2ccco2)cc1OC (centres unmarked)	6.85%
O=c1c2c(nc3n1CC(O)CS3)-c1ccccc1CC21CCCC1 (centres unmarked)	-0.711%
c1ccc(-c2nnc3c4ccccc4c4ccccc4c3n2)nc1	-1.82%
COCCNC(=S)NCc1ccc2[nH]c(C)cc2c1	1.55%
CC(=O)c1cccc(NC(=O)c2c(-c3ccccc3)noc2C)c1	-6.24%
CC1(C)Cc2nc(N)c(C#N)cc2CO1	-2.6%
Cc1c(C(=O)N2CCCCCC2)oc2ccc3c(c12)C(=O)CC(C)(C)O3	0.0882%
COc1ccc(CCNC(=O)c2cc(-c3ccco3)on2)cc1OC	-7.85%
CC(C)C[C@H](NC(=O)c1csc(-c2ccccc2[N+](=O)[O-])n1)C(=O)NCC#N	-11%
COc1ccc2c(c1)CCC/C2=N\OC(=O)c1ccccc1F	3.16%
Cc1nc(N=C(N)N)nc2c(C)cccc12	2.03%
CC(C)C(C(=O)Nc1cccc2ccccc12)N1C(=O)c2ccccc2C1=O (centres unmarked)	1.33%
O=C(Nc1ccc(Cl)c(Cl)c1)c1ccc([N+](=O)[O-])o1	-2.78%
FC(F)Oc1ccccc1C1C=C(c2ccc(Cl)cc2)Nc2nnnn21 (centres unmarked)	-1.62%
CCn1c(=N)n(CCOc2ccccc2C)c2ccccc21	1.29%
O=C(NC1(C(F)(F)F)NC(=O)N(c2ccc(F)cc2)C1=O)c1ccco1 (centres unmarked)	0.231%
Cc1ccc(C(=O)Nc2ccc(-c3nc4ncccc4o3)cc2)cc1C	25.8%
O=C(COc1ccccc1)Nc1nc2ccc(Cl)cc2s1	10.9%
CCOc1cc(CNCC2CCCN2CC)cc(Cl)c1OCC(N)=O (centres unmarked)	0.895%
Cc1nc(Sc2ccc(Cl)cc2)c2c3c(sc2n1)CCCC3	-3.92%

Structure (SMILES)	% Inhibition @ 10 uM
CCCCOc1ccc(C2C(C#N)=C(N)Oc3c2c(C)nn3-c2ccccc2)cc1OC (centres unmarked)	2.8%
CC1=C(CCN2CCN(CCOCCO)CC2)C(C)(C)CCC1	-4.75%
COc1ccccc1CNC(=O)C1CCCN(c2ncnc3c2sc2cccc(F)c23)C1 (centres unmarked)	-6.01%
Cc1cc(C)c(S(=O)(=O)N2C(=O)CCC2C(=O)Nc2ccc(Cl)cc2)c(C)c1 (centres unmarked)	1.64%
CC(C(=O)NCCCc1ccccc1)n1c2ccccc2c2cnn(C)c(=O)c21 (centres unmarked)	-0.281%
Cc1cccc(N2C(=O)CC(NCc3ccc(S(N)(=O)=O)cc3)C2=O)c1 (centres unmarked)	-1.96%
Cc1ccc(OCC(=O)Nc2ccc3ccccc3c2)cc1C	6.61%
CCCC(=O)Nc1ccc(C(=O)Nc2ccc(F)cc2F)cc1	-2.98%
COc1ccc(-c2csc(Nc3ccc(Cl)cc3)n2)cc1F	1.43% and -0.771%
CCOC(=O)C1=C(C)OC(N)=C(C#N)C1c1ccc(C)s1 (centres unmarked)	-2.2%
COc1cc2c(cc1OC)C(c1cccc(F)c1)N(C/C=C(\C)CCC=C(C)C)CC2 (centres unmarked)	-1.5%
Cc1nc(S)c2c(n1)-c1ccccc1CC21CCCCC1	-2.64%
CC1NC2(C(=O)N(Cc3ccccc3Cl)c3ccccc32)C2C(=O)N(Cc3ccccc3)C(=O)C12 (centres unmarked)	-5.27%
CN1CCN(CCCNC(=O)CCC(=O)N2CC=C(c3c[nH]c4ccccc34)CC2)CC1	-7.26%
O=[N+]([O-])c1ccccc1CN1CCC(O)CC1	3.16%
CC(C)(C)c1cc(/C=N/O)cc(C(C)(C)C)c1O	-1.45%
CCN(C(=O)c1ccc(-c2ccccc2)cc1)c1ccccc1	3.1%
Cc1ccc(CSCCNC(=O)CSc2ccccc2)cc1	-2.76%
O=C(Nc1ccccc1O)c1nc[nH]n1	5.73%
O=C(O)CC(NC(=O)Cc1ccc(Cl)cc1)c1ccc(F)cc1 (centres unmarked)	-1.47%
Cc1ccc(NC(=O)c2nc(-c3ccc(Cl)cc3)n3c2CCCCC3)nc1	4.39%
C#CCN1C(=O)C(O)(CC(=O)c2ccc3ccccc3c2)c2ccccc21 (centres unmarked)	-20.7%

Structure (SMILES)	% Inhibition @ 10 uM
CS(=O)(=O)n1nc(-c2cccnc2)nc1NCc1ccccc1	0.558%
CCOC(=O)N1CCN(c2ncnc3c2c(-c2ccccc2)cn3-c2cccc(Cl)c2)CC1	7.48%
COc1nc2ccccc2nc1CCC(=O)O	-1.72%
COCc1ccc2oc(C(=O)O)cc2c1	5.31%
O=C(c1cc(S(=O)(=O)N2CCOCC2)cs1)N1CCCC1	1.54%
N#CC1=C(N)Oc2[nH]nc(-c3cccs3)c2C1c1ccccc1F (centres unmarked)	5.89%
OCCN(CCO)CC1CC2C=CC1C2 (centres unmarked)	1.62%
CCCn1c(CCNC(=O)c2ccccc2)nc2ccccc21	1.5%
Cc1ccc(-c2nn(CCC(=O)NC(C)C)c(=O)c3ccccc23)cc1	2.25%
Cc1nn(-c2ccccc2)c(-n2cccc2)c1C(=O)NCCCN1CCOCC1	4.95%
CCCn1c(=O)c2sccc2n2c(CCCC(=O)N3CC(C)CC(C)C3)nnc12 (centres unmarked)	-2.15%
Cc1cccc(C(O)(CCN2CCCCC2)c2ccccc2)c1 (centres unmarked)	-1.82%
CCC(C)Sc1nc2c(c(=O)[nH]c(=O)n2C)n1Cc1ccc(Cl)cc1 (centres unmarked)	0.851%
Cc1cc(C)nc(NC(=O)c2ccccc2Cl)n1	3.29%
O=C(CC(c1ccc(F)cc1)N1Cc2ccccc2C1=O)NCc1ccc(CN2CCOCC2)o1 (centres unmarked)	-4.03%
CN1CCc2nc(S)c(C#N)c(-c3ccccc3)c2C1	2.45%
COCCN1C(=O)c2ccccc2C(C(=O)NCc2ccco2)C1c1cccs1 (centres unmarked)	2.19%
COc1ccc(OC)c(-n2c(CCC(=O)O)ccc2-c2ccccc2)c1	0.291%
COc1ccccc1OCc1ccc(C(=O)NCCN(C)C)o1	-5%
COC(=O)c1nc2n(n1)C(c1cc(OC)c(OC)c(OC)c1)C=C(c1cccc(OC)c1)N2 (centres unmarked)	-1.62%
Cc1nn(C)c2c1c(-c1ccccc1)cc(=O)n2C(C)C(=O)NCc1ccccc1 (centres unmarked)	-0.835%
